Measurements published in article PMC4336329 (PLoS ONE, 2015).
Among all 310,000 compounds or so, about 2,200 (0.71%) showed an effect of 50% or more. Effects have a minus sign here. The list shows a part of the results.

Target: human ether-à-go-go-related gene (hERG) potassium channel (human, UniProt Q12809)
Assay: primary screen, population patch clamp on CHO cells stably expressing hERG

Chain of human ether-à-go-go-related gene (hERG) potassium channel (Q12809 whole entry, looked up): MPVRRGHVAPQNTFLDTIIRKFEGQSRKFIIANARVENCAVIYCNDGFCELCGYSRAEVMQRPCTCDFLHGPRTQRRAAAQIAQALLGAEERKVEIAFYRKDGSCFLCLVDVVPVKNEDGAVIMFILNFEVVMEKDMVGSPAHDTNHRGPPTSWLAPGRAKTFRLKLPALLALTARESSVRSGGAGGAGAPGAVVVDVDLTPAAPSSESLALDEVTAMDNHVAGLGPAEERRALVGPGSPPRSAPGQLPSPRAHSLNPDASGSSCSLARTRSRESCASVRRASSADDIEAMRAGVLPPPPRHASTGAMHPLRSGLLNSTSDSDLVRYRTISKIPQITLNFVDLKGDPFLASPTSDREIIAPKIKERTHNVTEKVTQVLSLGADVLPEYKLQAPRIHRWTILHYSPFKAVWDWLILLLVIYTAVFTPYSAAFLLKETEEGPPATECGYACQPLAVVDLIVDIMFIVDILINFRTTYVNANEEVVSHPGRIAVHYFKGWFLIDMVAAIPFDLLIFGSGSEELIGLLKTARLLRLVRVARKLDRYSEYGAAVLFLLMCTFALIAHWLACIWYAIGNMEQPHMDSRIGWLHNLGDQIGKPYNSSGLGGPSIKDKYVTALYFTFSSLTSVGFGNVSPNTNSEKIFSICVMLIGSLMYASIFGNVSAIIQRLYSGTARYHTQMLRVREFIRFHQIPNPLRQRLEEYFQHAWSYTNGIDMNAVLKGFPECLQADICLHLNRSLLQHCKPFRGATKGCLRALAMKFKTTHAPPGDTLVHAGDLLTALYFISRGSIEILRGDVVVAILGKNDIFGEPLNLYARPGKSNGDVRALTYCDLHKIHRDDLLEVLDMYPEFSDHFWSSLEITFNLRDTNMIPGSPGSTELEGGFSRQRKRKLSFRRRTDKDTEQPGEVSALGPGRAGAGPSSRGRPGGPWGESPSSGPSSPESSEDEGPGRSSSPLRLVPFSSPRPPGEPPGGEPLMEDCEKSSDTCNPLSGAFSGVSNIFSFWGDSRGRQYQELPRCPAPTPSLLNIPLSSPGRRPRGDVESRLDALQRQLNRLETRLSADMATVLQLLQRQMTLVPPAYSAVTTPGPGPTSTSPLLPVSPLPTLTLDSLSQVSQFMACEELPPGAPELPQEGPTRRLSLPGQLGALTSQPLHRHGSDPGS

| Structure (SMILES) | hERG current change (%, negative = inhibition) at 1uM [%] |
| --- | --- |
| NC(=O)CC(NC(=O)Cc1ccc(Cl)cc1)c1ccc(NC2CCN(Cc3ccccc3)CC2)c([N+](=O)[O-])c1 (stereo not drawn) | 7.83 |
| O=C(NCCc1ccccc1C(F)(F)F)C1CCC(=O)N(CCCN2CCCC2=O)C1 (stereo not drawn) | 12.2 |
| COc1cc(OC)cc(C(=O)N2CCC(n3c(C)nc4cc(F)ccc43)CC2)c1 | -23.9 |
| O=C(CCNC(=O)c1ccc(Br)o1)NCc1ccc(Cl)cc1 | 8.17 |
| CCc1nc(SCC(=O)Nc2ccc3c(c2)OCCO3)c2oc3ccccc3c2n1 | 10.2 |
| CCCN1CCC(=O)N([C@H](CSc2ccccc2)Cc2ccccc2)CC1 | -48.9 |
| CCOc1ccc(OCC(=O)Nc2cc3c(cc2C(=O)O)OCCCO3)cc1 | 14.5 |
| O=C1OCc2cc(NC(=O)C3CCCO3)ccc21 (stereo not drawn) | 7.76 |
| COc1ccc(C(=O)NCCCN2CCOCC2)cc1S(=O)(=O)N1CCCc2ccccc21 | -12.2 |
| N#CC1(NC(=O)COC(=O)c2nc(Cl)ccc2Cl)CCCCC1 | -0.321 |
| CCCCNC(=O)CCCCCNS(=O)(=O)c1ccc(OC)cc1 | 6.89 |
| O=C(CN1CCCCCC1)NC(c1ccccc1)c1ccccc1.O=C(O)C(=O)O | -31.7 |
| Cc1cccc2cc(C#N)c(SCc3nnc(-c4ccccc4[N+](=O)[O-])o3)nc12 | 10.9 |
| COc1ccc(NC2c3ccccc3C(=O)N2c2cccnc2)cc1Cl (stereo not drawn) | -3 |
| Cc1nc2ccccc2c(=O)n1NC(=O)c1ccco1 | 11.8 |
| Cc1cc(NC(=O)CSc2nnc(-c3cccc(Cl)c3)o2)no1 | 13.1 |
| CC(Cc1ccccc1Sc1ccccc1)N(C)C.O=C(O)/C=C\C(=O)O (stereo not drawn) | -60.6 |
| Cc1csc2c(N3CCN(C(=O)Nc4ccc(OC(F)(F)F)cc4)CC3)ncnc12 | 11.1 |
| COC(=O)Cc1cc(=O)[nH]c(/N=C(\N)Nc2cccc(C)c2)n1 | 13.6 |
| O=C1c2ccccc2C(=O)N1CCCC(=O)N1CCCc2ccccc21 | -2 |
| C=CCNC(=O)CN(c1ccccc1OCC)S(=O)(=O)c1ccc(C)cc1 | 14.3 |
| Cc1cccc(NC(=O)CSc2nc3ccccc3o2)c1 | 14.7 |
| Cc1c(C(=O)c2ccccc2)c2ccccn2c1CCc1ccccn1 | 7.11 |
| NC(=O)c1ccc(SCC(=O)OCC(=O)NCc2ccco2)c([N+](=O)[O-])c1 | 10.7 |
